In the supplement of paper PMC4967469:

Columns and labels:
Assay in all cases: Viability of human cancer cell lines after 72 h of drug (GDSC screen)
[1] = compound: C=CC(=O)Nc1cc(-n2c(=O)ccc3cnc4ccc(-c5ccc(NS(C)(=O)=O)cc5)cc4c32)ccc1C [BMX-IN-1 (QL-XII-61)]; details: top dose 10 µM; top dose inferred
Description: (§1)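 Human cancer cell lines in 384-well plates, medium with 10% serum, drug for 72 h over a 256-fold dose range (nine 2-fold or five 4-fold steps up to the top dose). Adherent lines were fixed and stained with the nucleic acid dye Syto60, suspension lines read with resazurin; signal relative to control wells, capped at 0 and 100%. One two-parameter sigmoid per drug and line, fitted in a mixed model over all curves with the slope shared within a line.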

[2] = compound: C=CCNC1=C2C[C@@H](C)C[C@H](OC)[C@H](O)[C@@H](C)/C=C(\C)[C@H](OC(N)=O)[C@@H](OC)/C=C\C=C(/C)C(=O)NC(=CC1=O)C2=O [17-AAG]; details: top dose 1 µM
Description: as §1

[3] = compound: CCc1cc(-c2n[nH]c(C)c2-c2ccc3c(c2)OCCO3)c(O)cc1O [CCT018159]; details: top dose 10 µM; top dose inferred
Description: as §1

[4] = compound: CN(C)Cc1cccc(N=C(c2ccccc2)c2c(O)[nH]c3cc(C(=O)N(C)C)ccc23)c1 [BIX02189]; details: top dose 20 µM; top dose inferred
Description: as §1

[5] = compound: COC(=O)CNC(=O)C(=O)OC [Dimethyloxalylglycine]; details: top dose 4000 µM; top dose inferred
Description: as §1

[6] = compound: COc1cccc2c1C(=O)c1c(O)c3c(c(O)c1C2=O)C[C@@](O)(C(=O)CO)C[C@@H]3O[C@H]1C[C@H](N)[C@H](O)[C@H](C)O1 [Doxorubicin]; details: top dose 1.024 µM
Description: as §1

[7] = compound: COc1cccc2cc(-c3nc([C@H]4CC[C@H](C(=O)O)CC4)n4ncnc(N)c34)[nH]c12 [OSI-027]; details: top dose 20 µM
Description: as §1

[8] = compound: CS(=O)(=O)c1ccc(C(=O)Nc2ccc(Cl)c(-c3ccccn3)c2)c(Cl)c1 [Vismodegib]; details: top dose 10 µM; top dose inferred
Description: as §1

[9] = compound: Cc1cnc(Nc2ccc(F)cc2Cl)nc1-c1c[nH]c(C(=O)N[C@H](CO)c2cccc(Cl)c2)c1 [VX-11e]; details: top dose 5.12 µM; top dose inferred
Description: as §1

[10] = compound: Cc1cnc(Nc2ccc(OCCN3CCCC3)cc2)nc1Nc1cccc(S(=O)(=O)NC(C)(C)C)c1 [TG101348]; details: top dose 10.24 µM
Description: as §1

[11] = compound: O=C(c1ccc(C(=O)N2CCC(N3CCCC3)CC2)c(Nc2ccccc2)c1)N1CCC(N2CCCC2)CC1 [UNC1215]; details: top dose 1 µM; top dose inferred
Description: as §1

| Cell Line | AUC [1] | IC50 [1] [µM] | AUC [2] | IC50 [2] [µM] | AUC [3] | IC50 [3] [µM] | AUC [4] | IC50 [4] [µM] | AUC [5] | IC50 [5] [µM] | AUC [6] | IC50 [6] [µM] | AUC [7] | IC50 [7] [µM] | AUC [8] | IC50 [8] [µM] | AUC [9] | IC50 [9] [µM] | AUC [10] | IC50 [10] [µM] | AUC [11] | IC50 [11] [µM] |
| --- | --- | --- | --- | --- | --- | --- | --- | --- | --- | --- | --- | --- | --- | --- | --- | --- | --- | --- | --- | --- | --- | --- |
| H3118 (head and neck, adherent) | 0.966 | > 10 | 0.616 | 0.134 | 0.871 | > 10 | 0.919 | > 20 | 0.562 | 376 | 0.36 | 0.0253 | 0.785 | 9.45 | 0.969 | > 10 | 0.675 | 1.04 | 0.863 | > 10.2 | 0.977 | > 1 |
| PC-14 (lung adenocarcinoma, adherent) | 0.975 | > 10 | 0.441 | 0.044 | 0.81 | 4.57 | 0.908 | > 20 | 0.848 | 2510 | 0.711 | 0.233 | 0.637 | 2.86 | 0.978 | > 10 | 0.984 | > 5.12 | 0.766 | 3.38 | 0.989 | > 1 |
| RL (B-cell lymphoma, suspension) | 0.969 | > 10 | 0.938 | > 1 | 0.889 | 9.83 | 0.86 | 14.6 | 0.651 | 631 | 0.911 | > 1.02 | 0.162 | 0.131 | 0.988 | > 10 | 0.938 | > 5.12 | 0.816 | 5.09 | 0.986 | > 1 |
| KURAMOCHI (ovary, adherent) | 0.98 | > 10 | 0.885 | > 1 | 0.876 | > 10 | 0.962 | > 20 | 0.731 | 1280 | 0.572 | 0.104 | 0.749 | 7.4 | 0.984 | > 10 | 0.927 | > 5.12 | 0.814 | 6.7 | 0.976 | > 1 |
| MFE-280 (endometrium, adherent) | 0.959 | > 10 | 0.888 | > 1 | 0.981 | > 10 | 0.888 | > 20 | 0.611 | 549 | 0.905 | > 1.02 | 0.345 | 0.411 | 0.982 | > 10 | 0.903 | > 5.12 | 0.839 | 9.9 | 0.98 | > 1 |
| SK-MEL-1 (melanoma, suspension) | 0.993 | > 10 | 0.918 | > 1 | 0.991 | > 10 | 0.98 | > 20 | 0.844 | 2310 | 0.963 | > 1.02 | 0.849 | 12.1 | 0.983 | > 10 | 0.922 | > 5.12 | 0.978 | > 10.2 | 0.989 | > 1 |
| RH-1 (rhabdomyosarcoma, adherent) | 0.916 | > 10 | 0.951 | > 1 | 0.957 | > 10 | 0.861 | 12.6 | 0.665 | 658 | 0.243 | 0.0136 | 0.162 | 0.149 | 0.992 | > 10 | 0.934 | > 5.12 | 0.975 | > 10.2 | 0.989 | > 1 |
| SF126 (glioma, adherent) | 0.955 | > 10 | 0.929 | > 1 | 0.848 | 8.06 | 0.926 | > 20 | 0.446 | 176 | 0.584 | 0.11 | 0.702 | 4.78 | 0.986 | > 10 | 0.984 | > 5.12 | 0.868 | > 10.2 | 0.976 | > 1 |
| NB13 (neuroblastoma, adherent) | 0.99 | > 10 | 0.749 | 0.292 | 0.777 | 3.55 | 0.874 | 15.7 | 0.662 | 665 | 0.58 | 0.103 | 0.784 | 7.46 | 0.947 | > 10 | 0.908 | > 5.12 | 0.914 | > 10.2 | 0.989 | > 1 |
| CCK-81 (large intestine, adherent) | 0.983 | > 10 | 0.925 | > 1 | 0.936 | > 10 | 0.961 | > 20 | 0.954 | > 4000 | 0.928 | > 1.02 | 0.861 | 15.3 | 0.988 | > 10 | 0.852 | 3.6 | 0.9 | > 10.2 | 0.989 | > 1 |
| HEC-1 (endometrium, adherent) | 0.986 | > 10 | 0.485 | 0.057 | 0.9 | > 10 | 0.989 | > 20 | 0.724 | 1050 | 0.664 | 0.18 | 0.944 | > 20 | 0.989 | > 10 | 0.989 | > 5.12 | 0.973 | > 10.2 | 0.988 | > 1 |

Lines with a small IC50 respond at low doses; where the fit passes the top or lowest dose, that dose stands as a limit. AUC is the area under the same curve over the 256-fold range up to the top dose, as a fraction; it is 1 without any effect and falls as sensitivity rises. For some assays here: An inferred top dose comes from the curve model; the source does not state it.
